The values that follow come from ChEMBL document CHEMBL1201862, “PubChem BioAssay data set” (2004).

Structures are written as SMILES.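 A five-concentration, 48-hour dose response in 96-well plates underlies each endpoint, interpolated linearly between surrounding concentrations. Abbreviation: GI50, concentration required for 50% inhibition of growth.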 Calls of active or inactive are those of the source. Cut-off read from the data, not from the text of the source: active = GI50 up to about 1.1 µM and inactive = higher.

The experiment relates to NCI-H322M. Kind of experiment: NCI-60 cell line screen, 48 h.
For the molecule `c1ccc2c3nc(C4CCCC4)nc-3c(NC3CCCC3)[nH]c2c1`, the GI50 was inactive: 30.5 µM.

`Cc1nc2nnc(C)n2c2c1C(=O)Nc1ccccc1N2`: the GI50 was inactive: > 100 µM.

Consider `CC(CN(C)C)C(=O)c1ccccc1C(=O)O` (stereo unspecified), for which the GI50 is inactive: 44.4 µM.

Regarding `CC(C)(Cl)C(Br)CC/C(=C/CCl)CBr.CC(C)(Cl)C(Br)CC/C(=C\CCl)CBr` (stereo unspecified), the GI50 is inactive: 3.68 µM.

Regarding `CC(=O)O[C@H]1C#C/C=C\C#CC[C@@H]2C(=O)N(C(=O)OC(C)(C)C)[C@@H]12`, the GI50 was inactive: > 78 µM.

On to `Nc1nc(Cl)c(N)c(NCC2(CO)CC2)n1`, for which the GI50 was inactive: > 100 µM.

For the molecule `CC1C2CC(CC23OCC(CCl)O3)C1(C)C` (stereo unspecified), the GI50 is inactive: > 100 µM.

Turning to `Cc1nc2c(Cl)cc(Cl)cc2c2c1CCO2`, the GI50 was inactive: > 100 µM.

Consider `Oc1ccc(-c2nc(-c3cccnc3)c(-c3ccc(Cl)cc3)[nH]2)cc1O`, for which the GI50 is inactive: 20.2 µM.

For the molecule `CCOC(=O)CSc1nc(N)c2c(-c3ccccc3)c3c(nc2n1)CCCC3`, the GI50 was inactive: > 100 µM.

With `O=C(C(=O)n1ncc(Cl)c(Cl)c1=O)n1ncc(Cl)c(Cl)c1=O`, the GI50 is inactive: > 100 µM.

`Nc1nc(N)c2ncn(Cc3ccccc3CCl)c2n1`: the GI50 is inactive: > 100 µM.

Regarding `CC(C)C(N)(C(=O)O)c1ccccc1` (stereo unspecified), the GI50 was inactive: > 100 µM.

`CC(=O)OCC1OC(n2cc(F)c(=O)[nH]c2=O)C(NC(=O)N(CCCl)N=O)C(OC(C)=O)C1OC(C)=O` (stereo unspecified): the GI50 was inactive: > 100 µM.

Take `Cc1cccc2c1CC1(Cc3ccccc3C1=O)C2=O` (stereo unspecified): the GI50 was inactive: > 100 µM.

With `O=C1N[C@@H]([C@H]2CC[C@H](Cl)CN2)C(=O)N[C@H]1[C@H]1CC[C@H](Cl)CN1`, the GI50 is inactive: 5.92 µM.

On to `OCCNCN(CNCCO)c1nc(N(CNCCO)CNCCO)nc(N(CNCCO)CNCCO)n1`, for which the GI50 was active: 0.082 µM.

For `O=C(CN1CCOCC1)NC1=Nc2ncccc2C(=O)NN1`, the GI50 was inactive: > 10 µM.

As for `COc1ccc(NC2=CC(=O)C(=O)c3ccccc32)nn1`, the GI50 is inactive: 3.81 µM.

Turning to `CC(NC(=O)C(N)CC(=O)O)NC(=O)N1CCCC1` (stereo unspecified), the GI50 was inactive: > 100 µM.

Take `COCOc1ccc(C(=O)C(C)c2ccc(OCOC)cc2OCOC)c(O)c1` (stereo unspecified): the GI50 was inactive: > 10 µM.

As for `COc1cccc(/C=N\NC(=O)C(C)SC(C)C(=O)N/N=C/c2cccc(OC)c2)c1` (stereo unspecified), the GI50 is inactive: 21.2 µM.

On to `O=c1[nH]nc(-c2ccccc2)c2[nH]c(-c3ccccc3)cc12`, for which the GI50 is inactive: > 100 µM.

For `O=C1NC2(CCCC2)C2CCCCC12O` (stereo unspecified), the GI50 is inactive: > 100 µM.

Regarding `CC1=CC(=O)/C(=C/NC(=S)C(N)=S)C(=O)O1`, the GI50 was inactive: > 100 µM.

Regarding `COCN1C(=O)[C@@H]2CCCN2C(=O)c2cc(N)ccc21`, the GI50 was inactive: > 100 µM.

Regarding `O=c1c(NO)c([N+](=O)[O-])cnn1-c1ccccc1`, the GI50 is inactive: 6.41 µM.

For the molecule `O=S(=O)(O)c1ccc(/N=N/c2ccc(/N=N/c3c(O)ccc4ccccc34)c(S(=O)(=O)O)c2)cc1`, the GI50 was inactive: > 100 µM.

As to `N#Cc1nc(Nc2ccc([N+](=O)[O-])cc2)sc1N`, the GI50 is inactive: 31.5 µM.

`O=C1c2ccccc2-c2ccccc2C(=O)C1(Br)Br`: the GI50 was inactive: 17.9 µM.

Consider `OCCN1CN(c2nc(N3CN(CCO)C3)nc(N3CN(CCO)C3)n2)C1`, for which the GI50 is inactive: 38.7 µM.

Consider `O=C(C=P(c1ccccc1)(c1ccccc1)c1ccccc1)c1ccc(-c2cccc([N+](=O)[O-])c2)s1`, for which the GI50 is inactive: 52.4 µM.

As to `Nc1cc(C2CCCc3c2[nH]c2ccccc32)ccc1O` (stereo unspecified), the GI50 was inactive: > 100 µM.

Consider `S=c1c2cn[nH]c2nc2scc(-c3ccc(Cl)cc3)n12`, for which the GI50 is inactive: > 10 µM.

As to `CC1(C)C2CCC(=O)C1C(OCc1ccccc1)C2` (stereo unspecified), the GI50 was inactive: > 100 µM.

On to `CN1C(=O)CC2CCC(=O)N2c2cccnc21` (stereo unspecified), for which the GI50 was inactive: > 100 µM.

In the case of `Cc1ccccc1NC(=O)/C(=N\NC(N)=S)C(C#N)c1ccccc1` (stereo unspecified), the GI50 was inactive: > 100 µM.

Consider `CCOP(=O)(OCC)/C(C#N)=C/c1c(C)[nH]c2ccccc12`, for which the GI50 was inactive: > 100 µM.

In the case of `COC(=O)C1=C(c2ccc(Cl)cc2)C(O)NC(NN)=N1` (stereo unspecified), the GI50 was inactive: > 100 µM.

As for `CCOC(=O)c1cn2c([nH]c3ccccc32)c(C#N)c1=O`, the GI50 was inactive: > 100 µM.

With `O=C1C(Br)=C[C@H]2C3C=CC(Br)(C3=O)[C@@H]12` (stereo partly specified), the GI50 is inactive: 6.52 µM.

For the molecule `Cc1nc(N)c(N2CCN(C(=O)O)CC2)c(O)n1`, the GI50 was inactive: > 100 µM.

`Cc1ccc(C)n2c1nc1ccccc12`: the GI50 was inactive: > 100 µM.

With `CNC(=O)OCc1c(COC(=O)NC)c(-c2ccc(-c3ccccc3)cc2)n(C)c1C`, the GI50 is inactive: 1.51 µM.

As to `c1ccc(C/C(=N\Nc2nc3ccccc3[nH]2)c2ccccn2)cc1`, the GI50 is active: 0.041 µM.

As for `Nc1ccc(C2SCC(=O)N2NS(=O)(=O)c2cccc(C(=O)O)c2)cc1` (stereo unspecified), the GI50 is inactive: > 100 µM.

In the case of `CC(C)c1cccc(C(C)C)c1NC(=O)/C(CC(=O)CC(c1ccccc1)c1c(O)c2ccccc2oc1=O)=N/O` (stereo unspecified), the GI50 was inactive: > 100 µM.

Take `CC[C@@]1(CCC(=O)NCCc2c[nH]c3ccccc23)CCC(=O)N2CCc3c([nH]c4ccccc34)[C@H]21`: the GI50 was inactive: 33.7 µM.

Regarding `CCOC(=O)c1nc2c3c(ncn2n1)Oc1c(c(-c2ccccc2)nn1-c1ccccc1)C3c1ccc(Cl)cc1` (stereo unspecified), the GI50 is inactive: > 100 µM.

As to `O=C(Oc1ccc2c(-c3ccccc3)c(C(=O)Nc3ccc(Cl)cc3)c(=O)oc2c1)c1ccccc1`, the GI50 was inactive: > 100 µM.

In the case of `COc1ccc(N2C(=O)C(Cl)C2c2cc3cc(Br)ccc3nc2Cl)cc1` (stereo unspecified), the GI50 is inactive: 9.73 µM.

For `COc1ccc(/C=C/C(=O)N[C@@H]2C(=O)N3[C@@H]2SC(C)(C)[C@@H]3C(=O)O)cc1`, the GI50 was inactive: > 100 µM.

On to `[N-]=[N+]=NC1C2CC3C4CC5CC3[C@H](C2)C(C5)C41` (stereo partly specified), for which the GI50 is inactive: > 100 µM.

As for `CC1(C)CCC[C@@]2(C)C1CC[C@@]1(CO)O[C@H](C3=CC(=O)OC3O)C[C@H]12` (stereo partly specified), the GI50 was inactive: 16.9 µM.

`COC12c3ccccc3-c3ccccc3C1[C@H]1C(=O)OC(=O)[C@H]12` (stereo partly specified): the GI50 is inactive: > 10 µM.

With `COc1cc2nc(-c3ccccc3F)nc(O)c2cc1OC`, the GI50 is inactive: > 100 µM.

Regarding `CCN(CC)CCNc1ccc2nnn3c4ccc(O)cc4c(=O)c1c23`, the GI50 is inactive: 3.23 µM.

For the molecule `O=c1nc2n3c4c(cccc4nc-2c(=O)[nH]1)CCC3`, the GI50 was inactive: > 100 µM.

As to `CCOC(=O)c1c(CN2CCCC2)n(-c2ccccc2)c2cc(Br)c(O)cc12`, the GI50 is inactive: 24.4 µM.

Take `CCN(CC)CCNc1ccc2ncn3c4c(OC)cccc4c(=O)c1c23`: the GI50 was inactive: 4.47 µM.

With `CNc1ccc2c(c1)Cc1ccccc1-2`, the GI50 is inactive: 48.1 µM.
